Results as given in patent publication US20230331823A1 (HENRY M JACKSON FOUNDATION FOR THE ADVANCEMENT OF MILITARY …, published 2023).

Legend:
Assay in all cases: cell-based or functional assay
[1] = biological target: T1, SARS-CoV-2 Alpha (B.1.1.7) Spike on pseudovirions (SARS-CoV-2)
[2] = biological target: T2, SARS-CoV-2 Beta (B.1.351) Spike on pseudovirions (SARS-CoV-2)
[3] = biological target: T1, SARS-CoV-2 Alpha (B.1.1.7) Spike on …; remark: listed apart in the source
[4] = biological target: T2, SARS-CoV-2 Beta (B.1.351) Spike on …; remark: listed apart in the source

B1: BiShAb21a (ShAb02 VNAR-25aa-ShAb01 VNAR-3c-Fc) (bispecific antibody)
chain: ARVDQTPQTITKETGESLTINCVLRDSNCALASTDWYRKKSGSTNEESISKGGRYVETVNSGSKSFSLRINDLTVEDSGTYRCNAWDSWETRQLKCDYDVYGGGTVVTVNGGGGSGGGGSGGGGSGGGGSGGGGSARVDQTPRSVTKETGESLTINCVLRDSNCALSSTHWYRKKSGSTNEERILQGRRYVETVNSGSKSFSLRINDLRVEDSGTYRCKVYWGNSWQDKFCPGLGSYEYGDGTAVTVNSREPKSCDKGLEVLFQ[no letters for human IgG1 Fc and a few adjoining residues]
pseudovirus neutralization IC50 [1]: 0.022 µg/mL | pseudovirus neutralization IC80 [1]: 0.041 µg/mL | pseudovirus neutralization IC50 [2]: 0.026 µg/mL | pseudovirus neutralization IC80 [2]: 0.045 µg/mL | pseudovirus neutralization IC50 [3]: 0.02 µg/mL | pseudovirus neutralization IC50 [4]: 0.03 µg/mL

B2: ShAb01H02K (ShAb01Hole-02Knob) (bispecific antibody)
chain 1: ARVDQTPRSVTKETGESLTINCVLRDSNCALSSTHWYRKKSGSTNEERILQGRRYVETVNSGSKSFSLRINDLRVEDSGTYRCKVYWGNSWQDKFCPGLGSYEYGDGTAVTVNSREPKSCDKGLEVLFQGP[no letters for human IgG1 Fc with Y407T (EU numbers)]
chain 2: ARVDQTPQTITKETGESLTINCVLRDSNCALASTDWYRKKSGSTNEESISKGGRYVETVNSGSKSFSLRINDLTVEDSGTYRCNAWDSWETRQLKCDYDVYGGGTVVTVNSREPKSCDKGLEVLFQGP[no letters for human IgG1 Fc with T366Y (EU numbers)]
pseudovirus neutralization IC50 [1]: < 0.023 µg/mL | pseudovirus neutralization IC80 [1]: 0.046 µg/mL | pseudovirus neutralization IC50 [2]: 0.011 µg/mL | pseudovirus neutralization IC80 [2]: 0.021 µg/mL | pseudovirus neutralization IC50 [3]: < 0.02 µg/mL | pseudovirus neutralization IC50 [4]: < 0.02 µg/mL

Read-outs that look alike come from different tables or passages of the source.
